Among the data in the RNAGym collection of RNA variant scans (doi:10.7554/elife.90254) are self-cleavage values, retold here.

The chains are these.
B1: LINE1-mini (parent)
chain: GGCAGAGCUCAACACAGCGUGGCAAAGUGGCUGUGGCUAGACUGCC

The source gives no read counts; variants with many changes may rest on few reads.

In the data set the parent is B1. Description: self-cleavage, relative activity (ratio to wild type); higher = more cleavage; in vitro, sequencing; the parent is a self-cleaving ribozyme.
As for C23A C42G C45U, the self-cleavage amounted to 0.03.
In the case of C23A C31G G36C, the self-cleavage was 0.07.
Regarding C23A U28G U32C U34A, the self-cleavage was 0.06.
As for G22U U28C C37G, the self-cleavage came out at 0.02.
For C23G C31G G33U, the self-cleavage worked out at 0.03.
On to C23A G35U C42A, for which the self-cleavage worked out at 0.1.
Next, C23G A24U G36A: 0.21.
Next, C23A U32A G40A: 0.08; C23A U32A G40U: 0.12.
Take C23A G27U U34C A41C: the self-cleavage was 0.01.
In the case of C23G G29C G35C, the self-cleavage worked out at 0.01.
For the variant C23G G30U U43A G44U, the self-cleavage is 0.05.
For G22U U34A A41U, the self-cleavage stood at 0.04.
With C23A G33C U38A, the self-cleavage worked out at 0.02.
On to G22U G36U C46A, for which the self-cleavage worked out at 0.15.
C23A G29C G35C: the self-cleavage came to 0.08.
As to C23A A26U G30C C37A, the self-cleavage stood at 0.14.
For C23G A25C C45U, the self-cleavage amounted to 0.18.
As for C23G G29U C31G, the self-cleavage is 0.07.
For the variant C23G U34G U38A, the self-cleavage was 0.16.
Take C23G G40U C46U: the self-cleavage was 0.04.
Next, C23A A24U G36U: 0.02; C23G A26G G29A U34G: 1; C23A G29U U38C C46A: 0.12.
As to C23A G30C U32A C37U, the self-cleavage is 0.05.
For the variant C23A G33U G36U C42U, the self-cleavage stood at 0.05.
Regarding C23G A26C U28A, the self-cleavage was found to be 0.42.
On to G22U U43G C45A, for which the self-cleavage worked out at 0.35.
With C23G C31G C42G G44U, the self-cleavage is 0.
Regarding C23A G30U C31A, the self-cleavage came out at 0.25.
With C23A U38A C45A, the self-cleavage amounted to 0.9.
Next, C23G G27U G44A: 0.3; G22U U43A G44C: 0.15.
In the case of C23A U32A G33C, the self-cleavage was found to be 0.03.
In the case of G22U U38G A41C, the self-cleavage stood at 0.03.
Regarding C23A G44C C46A, the self-cleavage was found to be 0.04.
Turning to C23A G44C C46U, the self-cleavage amounted to 0.17.
For the variant C23G G27A U28C G29A C31G, the self-cleavage is 0.14.
Turning to C23A A26C C31U, the self-cleavage was 0.08.
The value for C23A A26U G40U C45G was 0.51; that for C23A C31G U32A G36A was 0.03.
Consider C23G G36A C42A C46U, for which the self-cleavage was 0.33.
The value for C23G C31A C42A C45U was 0.04.
For the variant C23A G36C U38C, the self-cleavage came to 0.03.
In the case of C23A C31A C37G, the self-cleavage was 0.02.
Take G22U U43C G44U: the self-cleavage was found to be 0.09.
For C23G A26C A41C, the self-cleavage came out at 0.03.
For C23A G27U U43C, the self-cleavage was 0.19.
For the variant C23A U28C C37G, the self-cleavage is 0.01.
Turning to C23A U38G C42U, the self-cleavage came out at 0.14.
Next, C23A A24G G27U G36C: 0.02; C23G G33A U38G: 0.05.
In the case of C23A G35U C45A, the self-cleavage worked out at 0.13.
For the variant G22U U32G C46G, the self-cleavage came out at 0.1.
Take C23A G36U G44A: the self-cleavage is 0.
Take C23A G27U C42A: the self-cleavage was 0.15.
On to C23A G33C U43C, for which the self-cleavage came to 0.01.
Turning to C23G U34A A41G, the self-cleavage came to 0.02.
In the case of G22U G44C C45G, the self-cleavage came out at 0.09.
C23A G27U G33U A39U C45U: the self-cleavage worked out at 0.02.
The value for C23A G33A U34G A39U was 0.06; that for C23A G35C C45U was 0.05.
With C23G C42A C45A, the self-cleavage is 0.02.
In the case of C23A C31U A41C, the self-cleavage is 0.03.
With C23A C37U U38A, the self-cleavage was determined as 0.02.
Next, C23G A25U C37U U38G: 0.01.
For the variant C23G G29U U32A, the self-cleavage amounted to 0.03.
The value for C23G G29U G30A U38C C42U was 0.25; that for C23A A26U C42U was 0.18.
Next, C23A U38G A39U: 0.1.
The value for C23A G30C A41U was 0.63; that for C23A C37U U43C was 0.02; that for C23A A26U G27U G36A was 0.04.
With C23G A26U C31U, the self-cleavage turned out to be 0.08.
Consider C23G A24G C31A, for which the self-cleavage was 0.03.
C23A G35C U38G A41G: the self-cleavage was found to be 0.02.
Regarding C23A A24U U28A, the self-cleavage was determined as 0.2.
On to C23G A24C G33C C45G, for which the self-cleavage worked out at 0.03.
Turning to C23G A24C G29A, the self-cleavage was determined as 1.92.
As to G22U U38G C46A, the self-cleavage was 0.01.
Next, C23A G33A A39G A41G: 0.1; C23A U28G G29U: 0.64.
Consider C23A G36U C37G, for which the self-cleavage was 0.01.
The value for C23A G40U C45U was 0.18; that for C23A A25U U28A C46A was 0.51.
Turning to C23G U34G A39C, the self-cleavage came to 0.01.
Next, C23G A26C C45G: 0.17; C23A U28C G33U U43G: 0.01; C23A U34G C45G: 0.07.
For the variant C23A G35C G44C, the self-cleavage amounted to 0.06.
Consider C23A G33A G35C, for which the self-cleavage turned out to be 0.06.
For the variant C23A A24C G30U G35U, the self-cleavage turned out to be 0.02.
Consider C23G G29U C45A, for which the self-cleavage was 0.38.
Consider C23A U43G C45G, for which the self-cleavage turned out to be 0.11.
Turning to C23G A24U C42A, the self-cleavage is 0.03.
As to G22U U28C G36A, the self-cleavage is 0.02.
Turning to C23A A25G C46G, the self-cleavage is 2.72.
Next, C23A A25G C46U: 0.49; C23A G29C G30U A41C G44U: 0.02; C23G C37G U38A: 0.01.
As to C23A A24G C42U C46U, the self-cleavage was 2.1.
As to C23G A24U U34A G36U, the self-cleavage came out at 0.01.
Next, C23G C31A G33A: 0.05.
In the case of C23A C31A G35A, the self-cleavage was 0.05.
Next, C23A G29C C37G C46U: 0.01.
Regarding C23A A24U U32A, the self-cleavage came out at 0.59.
On to C23G A25C G27C C42U, for which the self-cleavage came out at 0.47.
For the variant C23A A24U G29C G35C A39U, the self-cleavage stood at 0.02.
Turning to C23G A25U G30A, the self-cleavage amounted to 0.5.
For the variant C23A U34G U43G, the self-cleavage is 0.
On to G22U U34A G40U, for which the self-cleavage worked out at 0.02.
On to C23G U34A U43G, for which the self-cleavage is 0.
Consider C23G A25G C45G, for which the self-cleavage was 0.11.
On to C23G C31G G35C, for which the self-cleavage worked out at 0.12.
For the variant C23A A26C U32G C37A A41U, the self-cleavage amounted to 0.05.
The value for C23G A26U G33A U38A G44A was 0.02; that for C23G C31G G40U was 0.01.
Regarding C23G G35A G36C, the self-cleavage stood at 0.17.
C23A U32G C46G: the self-cleavage amounted to 0.15.
On to G22U U28A G30C G33U G44A, for which the self-cleavage is 0.04.
In the case of C23A G27A C42A, the self-cleavage is 0.27.
For the variant C23G G27U U28G G36A, the self-cleavage is 0.22.
Next, C23G G36U C37U: 0.03.
For C23G G30C A41G, the self-cleavage was determined as 0.28.
As to C23G A26G C46G, the self-cleavage was determined as 0.92.
Consider C23A U38C C46A, for which the self-cleavage is 0.15.
For the variant C23A G35C C42A, the self-cleavage was found to be 0.1.
As for C23G A25G A26U G33C, the self-cleavage stood at 0.02.
In the case of C23A C31G U32G, the self-cleavage was found to be 0.05.
Next, C23A A26U G36C G44U: 0.01; C23G G33U G36A G40U: 0.
G22U U28G C37U A41G: the self-cleavage is 0.01.
As for C23A G44C C45A, the self-cleavage came to 0.07.
As to C23A A24C U32A, the self-cleavage was 0.06.
For the variant C23G G40C C45A, the self-cleavage was found to be 0.17.
On to C23A C45U C46U, for which the self-cleavage is 0.22.
Turning to C23A U34A G35U A39U G40A, the self-cleavage came to 0.02.
On to C23A A25U G35A A41U, for which the self-cleavage is 0.33.
C23A A26C C45A: the self-cleavage is 0.73.
Consider C23A A24U G35A, for which the self-cleavage stood at 0.17.
With C23G A25U G36U, the self-cleavage is 0.03.
As for G22U U28G C45G, the self-cleavage came out at 1.23.
With C23A C31G U34C, the self-cleavage stood at 0.04.
On to C23G A25G G30A, for which the self-cleavage is 0.08.
The value for G22U U28G G30A G40C G44U was 0.06.
On to C23G G27A G30C, for which the self-cleavage worked out at 2.7.
Regarding C23A G30C G40A C42U, the self-cleavage worked out at 0.03.
The value for C23G C37G C42A was 0.01; that for C23G C37G C42G was 0.01; that for C23A G36A A39G was 1.26.
With C23G G36C C45G, the self-cleavage turned out to be 0.03.
As to C23G U28A G35A G40A, the self-cleavage is 0.23.
Regarding C23A C42G G44A, the self-cleavage is 0.03.
Regarding G22U G40A C46G, the self-cleavage stood at 0.22.
On to C23A G27A U28A G33A, for which the self-cleavage came out at 0.39.
C23A U28G A39C: the self-cleavage amounted to 0.74.
C23A A26G G27C: the self-cleavage is 1.42.
As for C23G A25C C37A, the self-cleavage was 0.02.
Take G22U U28G G44U: the self-cleavage worked out at 0.5.
In the case of C23G A26U U38C U43A, the self-cleavage was 0.04.
Consider C23A U34C C42G, for which the self-cleavage came to 0.09.
With C23G G40A C42A C46U, the self-cleavage was 0.
In the case of G22U U28G G30U G33C C37U, the self-cleavage came out at 0.02.
For C23A A25G G29C A39G, the self-cleavage is 0.17.
C23G U28A A39U U43A C46A: the self-cleavage amounted to 0.01.
As to C23G G29A C45G, the self-cleavage came out at 0.59.
In the case of C23G A25C G33A, the self-cleavage worked out at 0.06.
